Assay results reported in paper PMC12820563, “FoxP3 forms a head-to-head dimer in vivo and stabilizes its multimerization on adjacent microsatellites”.
This is one part of the list.

Each sequence was assayed against T1, MBP-FoxP1dN (Mus musculus, UniProt P58462 326-579) (assay: PD-seq (MBP pull-down with sequencing); 20 mM Tris-HCl pH 7.5, 100 mM NaCl, 1.5 mM MgCl2, 0.4 uM protein, 0.1 uM dsDNA library, 30 min, room temperature, amylose pull-down; high values mean tight binding). Conditions: protein: recombinant; tags: His6-MBP; chain copies: 2; dsDNA, one strand shown.
T1 sequence: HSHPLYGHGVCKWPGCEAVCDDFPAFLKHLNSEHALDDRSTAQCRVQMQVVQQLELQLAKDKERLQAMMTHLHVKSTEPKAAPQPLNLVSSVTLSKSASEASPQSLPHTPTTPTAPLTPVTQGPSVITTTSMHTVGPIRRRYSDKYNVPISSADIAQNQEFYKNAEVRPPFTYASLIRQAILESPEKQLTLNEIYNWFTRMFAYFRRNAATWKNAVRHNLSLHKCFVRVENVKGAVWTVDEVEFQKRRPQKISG
Procedure, shortened: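 Binding is the reads-per-million enrichment of pull-down relative to input, pooled across replicates. For this, 0.4 µM His6-MBP-tagged mouse FoxP3 or FoxP1 fragment lacking the N-terminus, made in E. coli, was incubated with 0.1 µM Klenow-filled double-stranded degenerate DNA library for 30 min at room temperature in Tris pH 7.5 buffer with NaCl and MgCl2. Complexes bound to amylose resin were washed three times before proteinase K released the DNA for PCR barcoding and Illumina sequencing.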

Sequence	binding signal
GATGATTGTTCTCCCAGCTGATGAATTCCTAATGTCGAGTAAACAAATTTTCCTAATCTTTCTGTTCAAGCGCCATCTAC	0.994 RPM ratio (pull-down/input)
GATGATTGTTCTCCCAGCTGATGAATTCTTTGCATCGAGTAAACAAATTTTCCTAATCTTTCTGTTCAAGCGCCATCTAC	1.26 RPM ratio (pull-down/input)
GATGATTGTTCTCCCAGCTGATGAATTCAACACGTCGAGTAAACAAATTTTCCTAATCTTTCTGTTCAAGCGCCATCTAC	1.05 RPM ratio (pull-down/input)
GATGATTGTTCTCCCAGCTGATGAATTCACACTGTCGAGTAAACAAATTTTCCTAATCTTTCTGTTCAAGCGCCATCTAC	0.93 RPM ratio (pull-down/input)
GATGATTGTTCTCCCAGCTGATGAATTTCTACACTCGAGTAAACAAATTTTCCTAATCTTTCTGTTCAAGCGCCATCTAC	0.899 RPM ratio (pull-down/input)
GATGATTGTTCTCCCAGCTGATGAATTTTCGAAATCGAGTAAACAAATTTTCCTAATCTTTCTGTTCAAGCGCCATCTAC	0.936 RPM ratio (pull-down/input)
GATGATTGTTCTCCCAGCTGATGAATTTCGCATGTCGAGTAAACAAATTTTCCTAATCTTTCTGTTCAAGCGCCATCTAC	0.944 RPM ratio (pull-down/input)
GATGATTGTTCTCCCAGCTGATGAATTCTGCACATCGAGTAAACAAATTTTCCTAATCTTTCTGTTCAAGCGCCATCTAC	0.911 RPM ratio (pull-down/input)
GATGATTGTTCTCCCAGCTGATGAATTAAGCCTTTCGAGTAAACAAATTTTCCTAATCTTTCTGTTCAAGCGCCATCTAC	0.884 RPM ratio (pull-down/input)
GATGATTGTTCTCCCAGCTGATGAATTCAATGCGTCGAGTAAACAAATTTTCCTAATCTTTCTGTTCAAGCGCCATCTAC	1.05 RPM ratio (pull-down/input)
GATGATTGTTCTCCCAGCTGATGAATTGACTGATTCGAGTAAACAAATTTTCCTAATCTTTCTGTTCAAGCGCCATCTAC	1.14 RPM ratio (pull-down/input)
GATGATTGTTCTCCCAGCTGATGAATTGCGTTCTTCGAGTAAACAAATTTTCCTAATCTTTCTGTTCAAGCGCCATCTAC	1.15 RPM ratio (pull-down/input)
GATGATTGTTCTCCCAGCTGATGAATTGAGGCCATCGAGTAAACAAATTTTCCTAATCTTTCTGTTCAAGCGCCATCTAC	0.932 RPM ratio (pull-down/input)
GATGATTGTTCTCCCAGCTGATGAATTTTTGAGCTCGAGTAAACAAATTTTCCTAATCTTTCTGTTCAAGCGCCATCTAC	0.862 RPM ratio (pull-down/input)
GATGATTGTTCTCCCAGCTGATGAATTGCCTAAGTCGAGTAAACAAATTTTCCTAATCTTTCTGTTCAAGCGCCATCTAC	0.889 RPM ratio (pull-down/input)
GATGATTGTTCTCCCAGCTGATGAATTACGGTGATCGAGTAAACAAATTTTCCTAATCTTTCTGTTCAAGCGCCATCTAC	0.986 RPM ratio (pull-down/input)
GATGATTGTTCTCCCAGCTGATGAATTCAGCGACTCGAGTAAACAAATTTTCCTAATCTTTCTGTTCAAGCGCCATCTAC	0.675 RPM ratio (pull-down/input)
GATGATTGTTCTCCCAGCTGATGAATTATGTCGGTCGAGTAAACAAATTTTCCTAATCTTTCTGTTCAAGCGCCATCTAC	0.893 RPM ratio (pull-down/input)
GATGATTGTTCTCCCAGCTGATGAATTCGTCAGCTCGAGTAAACAAATTTTCCTAATCTTTCTGTTCAAGCGCCATCTAC	0.757 RPM ratio (pull-down/input)
GATGATTGTTCTCCCAGCTGATGAATTGCCGTCCTCGAGTAAACAAATTTTCCTAATCTTTCTGTTCAAGCGCCATCTAC	0.849 RPM ratio (pull-down/input)

Sequence	binding signal
GATGATTGTTCTCCCAGCTGATGAATTTTCCATTTCGAGTAAACAAATTTTCCTAATCTTTCTGTTCAAGCGCCATCTAC	0.926 RPM ratio (pull-down/input)
GATGATTGTTCTCCCAGCTGATGAATTGTAAAAATCGAGTAAACAAATTTTCCTAATCTTTCTGTTCAAGCGCCATCTAC	1.21 RPM ratio (pull-down/input)
GATGATTGTTCTCCCAGCTGATGAATTGGTATCTTCGAGTAAACAAATTTTCCTAATCTTTCTGTTCAAGCGCCATCTAC	1.06 RPM ratio (pull-down/input)
GATGATTGTTCTCCCAGCTGATGAATTCCGGAGTTCGAGTAAACAAATTTTCCTAATCTTTCTGTTCAAGCGCCATCTAC	0.805 RPM ratio (pull-down/input)
GATGATTGTTCTCCCAGCTGATGAATTTATACGCTCGAGTAAACAAATTTTCCTAATCTTTCTGTTCAAGCGCCATCTAC	1.08 RPM ratio (pull-down/input)
GATGATTGTTCTCCCAGCTGATGAATTTACAATGTCGAGTAAACAAATTTTCCTAATCTTTCTGTTCAAGCGCCATCTAC	1.45 RPM ratio (pull-down/input)
GATGATTGTTCTCCCAGCTGATGAATTCTAACGGTCGAGTAAACAAATTTTCCTAATCTTTCTGTTCAAGCGCCATCTAC	0.843 RPM ratio (pull-down/input)
GATGATTGTTCTCCCAGCTGATGAATTGTGGGACTCGAGTAAACAAATTTTCCTAATCTTTCTGTTCAAGCGCCATCTAC	0.958 RPM ratio (pull-down/input)
GATGATTGTTCTCCCAGCTGATGAATTAGAACCTTCGAGTAAACAAATTTTCCTAATCTTTCTGTTCAAGCGCCATCTAC	0.891 RPM ratio (pull-down/input)
GATGATTGTTCTCCCAGCTGATGAATTGGGTCTATCGAGTAAACAAATTTTCCTAATCTTTCTGTTCAAGCGCCATCTAC	0.901 RPM ratio (pull-down/input)
GATGATTGTTCTCCCAGCTGATGAATTATACGTTTCGAGTAAACAAATTTTCCTAATCTTTCTGTTCAAGCGCCATCTAC	1.06 RPM ratio (pull-down/input)
GATGATTGTTCTCCCAGCTGATGAATTCCTGATTTCGAGTAAACAAATTTTCCTAATCTTTCTGTTCAAGCGCCATCTAC	1.02 RPM ratio (pull-down/input)
GATGATTGTTCTCCCAGCTGATGAATTCCAATTTTCGAGTAAACAAATTTTCCTAATCTTTCTGTTCAAGCGCCATCTAC	0.901 RPM ratio (pull-down/input)
GATGATTGTTCTCCCAGCTGATGAATTTATTAACTCGAGTAAACAAATTTTCCTAATCTTTCTGTTCAAGCGCCATCTAC	1.27 RPM ratio (pull-down/input)
GATGATTGTTCTCCCAGCTGATGAATTTATCCGGTCGAGTAAACAAATTTTCCTAATCTTTCTGTTCAAGCGCCATCTAC	0.92 RPM ratio (pull-down/input)
GATGATTGTTCTCCCAGCTGATGAATTTCATGCGTCGAGTAAACAAATTTTCCTAATCTTTCTGTTCAAGCGCCATCTAC	0.944 RPM ratio (pull-down/input)
GATGATTGTTCTCCCAGCTGATGAATTCTCAGTCTCGAGTAAACAAATTTTCCTAATCTTTCTGTTCAAGCGCCATCTAC	0.748 RPM ratio (pull-down/input)
GATGATTGTTCTCCCAGCTGATGAATTCGGACTATCGAGTAAACAAATTTTCCTAATCTTTCTGTTCAAGCGCCATCTAC	0.87 RPM ratio (pull-down/input)
GATGATTGTTCTCCCAGCTGATGAATTATTCGTCTCGAGTAAACAAATTTTCCTAATCTTTCTGTTCAAGCGCCATCTAC	0.982 RPM ratio (pull-down/input)
GATGATTGTTCTCCCAGCTGATGAATTCAGGGTATCGAGTAAACAAATTTTCCTAATCTTTCTGTTCAAGCGCCATCTAC	0.862 RPM ratio (pull-down/input)
